Consider 1 molecule from US20260374880 (published 2026).

Experiment [1] addresses T1, human TGFbR1 ECD-133-myc(His)6 (human).
T1 chain: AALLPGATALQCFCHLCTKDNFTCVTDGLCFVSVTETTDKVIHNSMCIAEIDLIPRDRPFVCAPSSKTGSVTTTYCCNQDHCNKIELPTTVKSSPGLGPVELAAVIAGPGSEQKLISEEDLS
The experiment in a line: BLI.

Experiment [2] deals with T2, human TGFbR1 ECD 33-125-myc(His)6 (human).
T2 chain: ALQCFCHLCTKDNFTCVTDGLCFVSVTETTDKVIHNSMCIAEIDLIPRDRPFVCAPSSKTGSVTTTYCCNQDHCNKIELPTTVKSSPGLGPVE
The experiment in a line: ELISA.

B1: B-ML012-19 (antibody)
chain: [sequence of about 100 residues omitted]VVGYVYGGSYGGGMDYWGQGTLVTVSSGGGGSGGGGSGGGGSDIQMTQSPSSLSASVGDRVTITCRASQSISSYLNWYQQKPGKAPKLLIYAASSLQSGVPSRFSGSGSGTDFTLTISSLQPEDFATYYCQQGYGPLTFGQGTKLEIK
In experiment [1], B1 returned a Kd of around 330 nM. Also, in experiment [2], the binding result is “no binding”.
